Hit rate of the full screen: of about 360,000 compounds, about 7,500 (2.1%) were called active. The inconclusive results got no clear call from the source; some entries with a clear call stand among them for comparison. The call rests on the fitted dose curve; in most records, active means well fitted cell-killing curve with a large enough effect; inconclusive means small, poorly fitted or top-dose-only effect, or effect the other way, or another doubt; inactive means no such curve, though single readings can be large or run the other way. Potencies of inconclusive entries are left out as doubtful fits.
Assay: qHTS for induction of synthetic lethality in tumor cells producing 2HG: qHTS for the HT-1080-IDH1KD cell line;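 on activity, negative = toxicity: 0% = DMSO wells and -100% = cell-free medium wells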
Settings: HT-1080 IDH1 knockdown viability, ATP luminescence, 48 h; activity, negative = toxicity: at 46.1 µM (top of the series) unless noted
How it was run: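 HT-1080-IDH1KD cells (IDH1 knocked down), 750/well in RPMI with 5% FBS, treated with compound 48 h at 37 degrees C. Viability by CellTiter-Glo luminescence, normalised to DMSO and no-cell wells; concentration-response curves classed.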
Potency means the concentration at half of the fitted maximal effect; tags describe the fitted curve by direction and shape.

| SMILES | Potency | activity, negative = toxicity |
| --- | --- | --- |
| CSc1ccc(S(=O)(=O)Nc2ccc(S(=O)(=O)Nc3ccc(C)cc3)cc2)cc1 | inconclusive [cytotoxic, single point] |  |
| O=C(NCCOc1ccccc1)C1Nc2ccc(C(F)(F)F)cc2C2c3ccccc3CC12 (centres undefined) | inconclusive [cytotoxic, single point] |  |
| CC1(C(=O)Nc2ccc3c(c2)OCO3)Cc2c(-c3cccc(C(N)=O)c3)ccnc2O1 (centres undefined) | active: 3.66 µM |  |
| CC(C)Nc1nc(Cl)nc(N(C#N)CN2C(=O)c3ccccc3C2=O)n1 | active: 18.4 µM |  |
| Cc1ccc2sc(N(CCCN(C)C)C(=O)c3ccc(Br)s3)nc2c1C | active: 13 µM |  |
| Cc1ccc(-c2c[n+](CC(=O)c3ccc(Br)cc3)c3n2CCCCC3)cc1 | inconclusive [cytotoxic, single point] |  |
| Cc1ccc(Nc2nc(N)nc(CSc3nc4ccccc4s3)n2)cc1 | inconclusive [cytotoxic, single point] |  |
| Cc1ccc(C(=O)N/N=C\c2ccc[nH]2)cc1[N+](=O)[O-] | inconclusive [cytotoxic, single point] |  |
| COCCN(C(=O)COC(=O)CNC(=O)c1ccc(C)cc1)c1c(N)n(Cc2ccccc2)c(=O)[nH]c1=O |  | inactive: 14.7% |
| Cc1cccc(NC(=S)NCCSc2ccc(Cl)cc2)c1 | inconclusive [cytotoxic, single point] |  |
| Cc1ccc(NC(=O)NCCN2CCN(c3ccccc3)CC2)cc1Cl | inconclusive [cytotoxic, single point] |  |
| CCCCc1ccc(-c2nn[nH]n2)nc1 |  | inactive: -24.4% |
| COC1=C(Nc2ccccc2)C(=O)c2ccccc2C1=O | active: 13 µM |  |
| COC(=O)c1ccc(OC)c(CSc2nnc(COc3ccccc3)o2)c1 | inconclusive [cytotoxic, single point] |  |
| O=C(Cc1ccccc1)N/N=C/c1cc(Br)cc(Br)c1O |  | inconclusive: -30.2% [cytotoxic] |
| CC(=O)N(C(C)=O)N1C(=O)C2C3c4ccccc4C(c4ccccc43)C2C1=O (centres undefined) | active: 13 µM |  |
| CCOC(=O)c1ccc2ncc(C(=O)OCC)c(Nc3ccc(N4CCOCC4)cc3)c2c1 | inconclusive [cytotoxic, single point] |  |
| COc1ccc(CCNC(=O)c2ccc3c(c2)SC2=NS(=O)(=O)CCN23)cc1 |  | inconclusive: 31.7% |
| O=[N+]([O-])c1ccccc1NCCNS(=O)(=O)c1ccc(Cl)cc1 |  | inactive: 0.317% |
| COc1ccc(OCC(O)Cn2c(=N)n(CCN3CCCCC3)c3ccccc32)cc1 (centres undefined) | inconclusive [cytotoxic, single point] |  |
| O=[N+]([O-])c1c(Nc2ccccn2)cc(Cl)c2nonc12 | inconclusive [cytotoxic, single point] |  |
| Nc1nc(CN2CCN(C(c3ccccc3)c3ccccc3)CC2)nc(Nc2ccccc2)n1 | inconclusive [cytotoxic, single point] |  |
| C[C@@H](NC(=O)Cn1cnc2c(OCc3ccccc3)ncnc21)c1cccc2ccccc12 | inconclusive [cytotoxic, single point] |  |

| SMILES | Potency | activity, negative = toxicity |
| --- | --- | --- |
| CCn1cc(C(=O)OCC(=O)c2ccccc2)c(=O)c2ccc(C)nc21 |  | inactive: 1.48% |
| Cc1ccc(N(CCC#N)C(=O)CCl)cc1C | active: 13 µM |  |
| O=C(Nc1ccc(SC(F)F)cc1)c1cc(-c2ccncc2)nc2ccccc12 | inconclusive [cytotoxic, single point] |  |
| CCOC(=O)c1[nH]c2ccc(Br)cc2c1NC(=O)CCN1CCC(C)CC1 | inconclusive [cytotoxic, partial curve] |  |
| CCOC(=O)c1sc2nc(C)nc(NCCc3ccccn3)c2c1C |  | inactive: 3.89% |
| O=C(COc1ccc(Cl)cc1)NCCCNC(=O)c1cccnc1 | inconclusive [cytotoxic, single point] |  |
| CCOC(=O)c1ccc2c(c1)nc(COc1ccc3ccccc3c1)n2CC | inconclusive [cytotoxic, single point] |  |
| COc1ccc(CN2CCC(Cc3ccccc3)CC2)c(C)c1C | inconclusive [cytotoxic, single point] |  |
| COc1cc(NC(=O)c2ccco2)c(OC)cc1NC(=O)Nc1cccc(Cl)c1 | inconclusive [cytotoxic, single point] |  |
| C#CCOCCOCCOCCNc1nc(N2CCN(C(=O)CCCCCCCCCCNC(=O)[C@H](CCCCN)n3cc(C)nn3)CC2)nc(N2CCN(C(=O)CCCCCCCCCCNC(=O)[C@H](CCCN=C(N)N)n3cc(C[C@@H](C)CC)nn3)CC2)n1 | inconclusive [cytotoxic, single point] |  |
| COC(=O)[C@]12CCCCC=C1N(Cc1cccc3ccccc13)C(=O)[C@H](CC(=O)NCCC(C)C)C2 | inconclusive [cytotoxic, single point] |  |
| CSc1cccc(NC(=S)N(CCN(C)C)C(C)c2ccccn2)c1 (centres undefined) | inconclusive [cytotoxic, single point] |  |
| O=C(Cn1cnc(Cl)c1Cl)c1ccc(F)cc1 |  | inactive: -2.03% |
| NC(c1csc(NC(=O)Nc2ccccc2Oc2ccccc2)n1)c1ccccc1Cl (centres undefined) | inconclusive [cytotoxic, single point] |  |
| O=c1c2ccccc2sn1-c1cccc(Cl)c1 | inconclusive [cytotoxic, single point] |  |
| COc1ccc(NC(=O)C2CCC(C(C)(C)C)CC2)cc1S(=O)(=O)N1CCOCC1 (centres undefined) |  | inactive: -23.8% |
| Cc1cc(C)n(CCC(=O)N/N=C/c2ccc(O)cc2O)n1 | inconclusive [cytotoxic, single point] |  |
| CCCCCOc1ccc(C(=O)C(c2ccccc2)N2CCOCC2)cc1 (centres undefined) |  | inactive: -24.5% |
| Cc1ccc2occ(/C=N/NC(=O)c3ccc(O)cc3)c(=O)c2c1 |  | inactive: -13.1% |
| CCCCc1ccc(NC(=O)CSc2nc(=O)n(CCCN3CCOCC3)c3c2CCC3)cc1 | inconclusive [cytotoxic, partial curve] |  |
| Cc1cc(C(=O)CCl)c(C)n1CCc1ccc(F)cc1 | active: 5.17 µM |  |
| O=C(/C=C/c1ccco1)Nc1cccc(S(=O)(=O)N2CCOCC2)c1 |  | inconclusive: 31.2% |
| COc1ccc(-c2nnn(CC(=O)NC3CCCc4ccccc43)n2)cc1OC (centres undefined) | inconclusive [cytotoxic, single point] |  |

| SMILES | Potency | activity, negative = toxicity |
| --- | --- | --- |
| COCCN(C(=O)CSc1nnc(-c2ccccc2F)n1N)c1c(N)n(Cc2ccccc2)c(=O)[nH]c1=O |  | inactive: -2.4% |
| CCc1nc2cccnc2n1-c1ccc(CC(=O)O)cc1 |  | inactive: 12.3% |
| COC(=O)C1=CN(c2ccc(C(C)(C)C)cc2)C(N)=C(C#N)C1c1cccc([N+](=O)[O-])c1 (centres undefined) |  | inactive: -4.01% |
| Cc1ccc(S(=O)(=O)N2CC3(O)CN(C(=O)OC(C)C)N(C(=O)OC(C)C)CC3(OC(=O)NC3CCCC3)C2)cc1 (centres undefined) |  | inactive: 6.99% |
| CCN(CC)CCn1c(=N)n(CC(O)COc2cccc(C)c2)c2ccccc21 (centres undefined) | active: 20.6 µM |  |
| COc1cc(/C=N/Nc2ccc(F)cc2F)cc(OC)c1OC | inconclusive [cytotoxic, partial curve] |  |
| CCCCNC(=O)CSc1nnc(-c2cccc(S(=O)(=O)N3CCOCC3)c2)o1 |  | inactive: 5.25% |
| COc1ccc(-c2oc3ccccc3c2C#Cc2cncn2C)cc1 | inconclusive [cytotoxic, single point] |  |
| COc1cc(NC(=O)c2cc(-c3cccc(O)c3)on2)cc(OC)c1OC | inconclusive [cytotoxic, single point] |  |
| COc1cccc(C(=O)Nc2ccc(C3CC3(Cl)Cl)cc2)c1 (centres undefined) | inconclusive [cytotoxic, single point] |  |
| O=C(Cn1cnc2cc([N+](=O)[O-])ccc2c1=O)Nc1cccc(S(=O)(=O)N2CCCCC2)c1 | inconclusive [cytotoxic, single point] |  |
| NC(=O)C1CN(C(=O)c2nn(Cc3ccccc3)c(=O)c3ccccc23)c2ccccc2O1 (centres undefined) | inconclusive [cytotoxic, partial curve] |  |
| OCCOC1CCCc2oc(-c3ccccc3)c(C#CC3(O)CCCCC3)c21 (centres undefined) | inconclusive [cytotoxic, single point] |  |
| Cc1c(NC(=O)CN(c2ccccc2)S(=O)(=O)c2ccc(F)cc2)c(=O)n(-c2ccccc2)n1C |  | inactive: 11.5% |
| COc1ccccc1NC(=O)Cn1nnc(C(=O)NCc2cccs2)c1N | active: 2.06 µM |  |
| N=c1n(Cc2ccccc2)c2ccccc2n1CC(O)COc1ccccc1 (centres undefined) | inconclusive [cytotoxic, single point] |  |
| Cc1cccc(-c2nc(NCCCN(C)C)c3ccccc3n2)c1 | inconclusive [cytotoxic, single point] |  |
| COCCNC(=O)C1CCCN(Cc2cccc(C#N)c2)CC1 (centres undefined) | inconclusive [rising, single point] |  |
| COc1cc(OC)cc(C2=Cc3ccc(OC)cc3C(CC(C)=O)N2c2ccc(C#CC3(N)CCCCC3)cc2)c1 (centres undefined) | active: 25.9 µM |  |
| COc1ccccc1-c1ccc2c(c1)C(C)(Cc1ccc(Cl)c(Cl)c1)C(=O)N2 (centres undefined) | active: 23.1 µM |  |
| Cc1ccccc1C(=O)Oc1cccc2c(O)cccc12 | inconclusive [cytotoxic, partial curve] |  |
| COc1ccc(C(=O)/C=C/Nc2ccc(S(=O)(=O)Nc3nc(C)cc(C)n3)cc2)cc1OC | inconclusive [cytotoxic, single point] |  |
| COc1ccc(/C=C/C(=O)C23CC4CC(CC(C4)C2)C3)cc1CN1CCOCC1 | inconclusive [cytotoxic, single point] |  |
